In all, about 13,000 compounds were measured (“IFI”: median about 4, highest 2% from about 17 on). The list shows a part of the results.

This experiment can be described thus: GSK_TCMDC: Inhibition Frequency Index (IFI). The number of non-kinase HTS assays where a compound showed > 50 % inhibition, expressed as a percentage of the number of such assays in which the compound was tested (-0 is zero). The format is functional.
For `CCCc1ccc(C2CCN(CCCCNC(=O)c3ccc(NC(=O)c4ccc(Cl)cc4)cc3)CC2)cc1`, the IFI was found to be 3.64%.

Compound `COCCNCc1cccc(-c2ccc3c(Nc4ccc(Oc5cccnc5)cc4)ccnc3c2)c1` showed an IFI of 9.92%. As for `O=S1(=O)NC2(CCN(CCc3ccc(Cl)cc3)CC2)Nc2cc(F)cc(F)c21`, the IFI worked out at 2.04%. As for `CCCCCN1CCCN(Cc2cccc(NC(=O)c3ccc4ccccc4c3)c2)CC1`, the figure is 4.11%; as for `CCc1ccc(-c2nc3cc(NC(=O)c4ccc([N+](=O)[O-])o4)ccc3o2)cc1`, -0%. The same measure for `CCCCCCNc1c2ccccc2nc2ccccc12`: 7.8%; for `Cc1cc(N[C@@H](Cc2ccccc2)C(=O)NCCc2ccccc2)nc(NCC2CCCCC2)n1`: 11.4%. In the case of `CNC(=O)C(C)N(c1ccc(Cl)cc1)c1nc(C(C)(C)C)cs1` (stereo not drawn), the IFI turned out to be 4.76%. For `CC(=O)c1ccc2c(c1)CCN(CCC1CCC(NC(=O)c3cc4ccccc4[nH]3)CC1)CC2` (stereo not drawn), the IFI was determined as 11.6%. The same measure for `O=C(Nc1cccc(N2CCC(NCc3cccnc3)CC2)c1)c1cccc(C(F)(F)F)c1`: -0%; for `Cc1cccc(-c2nn(-c3ccccc3)cc2C(=O)Nc2nnc(C)o2)c1`: 4.08%.

Turning to `Cc1noc(C)c1-c1cccc(CNCc2cccc(-c3ccc(-c4nc5ccccc5[nH]4)cc3)c2)c1`, the IFI turned out to be 7.69%. As for `Cc1cc(N2Cc3ccccc3C2)nc(Nc2ccc(S(=O)(=O)N3CCOCC3)cc2)n1`, the figure is 0%; as for `Cc1cc(C)cc(Oc2c(C(F)(F)F)oc3c(CN4CC(C)OC(C)C4)c(O)ccc3c2=O)c1` (stereo not drawn), -0%. For `CC(C)COc1ccc(Cl)cc1Cc1nc(-c2nc3ccc(CN4CCCC4)cc3[nH]2)co1`, the IFI turned out to be 16.1%. The same measure for `O=C(Nc1ccc(Cn2ncc(N3CCCNCC3)c(Cl)c2=O)cc1)Nc1cccc(SC(F)(F)F)c1`: 5.88%; for `Clc1ccc(-c2cc(-c3csc(Nc4ccncc4)n3)on2)cc1`: 2.11%; for `CCN(CC)CCN(CCCc1ccc(-c2ccc(C(F)(F)F)cc2)cc1)C(=O)Cn1c(CCc2cccc(F)c2F)nc(=O)c2c1CCC2`: 11.5%. `COc1ccc(C(=O)NC(c2ccc(Cl)cc2Cl)c2cc(Cl)c3cccnc3c2O)cc1` (stereo not drawn) registered an IFI of 5.41%. In the case of `COc1ccc(-c2nc3cccnc3n2CC(=O)Nc2c(C)cc(C)cc2C)c(OC)c1`, the IFI is 5.56%. For `Clc1ccc(/N=C(/NCCCCCCCN/C(=N\c2ccc(Cl)cc2)Nc2ccc(Cl)cc2)Nc2ccc(Cl)cc2)cc1`, the IFI was determined as 17.1%.

`COc1cc(NCCCCCNc2cc(Cl)nc3ccccc23)nc2ccccc12` yielded an IFI of 15.8%.

Compound `O=C(/C=C/c1ccc(Cl)c(Cl)c1)NCCCCCN1CCCN(C(=S)Nc2ccc(Cl)c(Cl)c2)CC1` had an IFI of 5.65%. `C=CC[C@@H](C(=O)OCC)[C@@H]1[C@@H](N(CC=C)C(=O)OC(C)(C)C)CCN1C(=O)OCc1ccccc1` gave an IFI of 0.73%.

In the case of `CCN(CC)CCNC(=O)c1ccc(NC(=O)c2oc3c(Cl)cccc3c2C)cc1`, the IFI is 4.76%. As for `CC1CCCN1Cc1ccc(-c2ccc3c(=O)cc(CCc4cccc(F)c4F)n(CC(=O)N(C)Cc4ccc(-c5ccc(C(F)(F)F)cc5)cc4)c3n2)cc1` (stereo not drawn), the figure is 5.63%; as for `CN(C)CC1CCCN1Cc1ccccc1-c1cnn(C)c(=O)c1Oc1ccc(F)cc1` (stereo not drawn), 3.45%.

`O=C(Cc1ccc(-n2cnnn2)cc1)N(Cc1cncn1Cc1cccc(C(F)(F)F)c1)CC1CC1` displayed an IFI of -0%. The same measure for `FC(F)(F)c1cccc2c(NN=Cc3ccccc3)ccnc12`: 8.2%; for `C=CCc1ccccc1OCC(O)CN(C1CCCCC1)C1CCCCC1` (stereo not drawn): 4.96%; for `COCCNCc1cccc(-c2ccc(CNC3CCN(Cc4ccccc4)CC3)cc2)c1`: 2.86%.

Turning to `Cc1cccc2nc(-c3ccc(-c4cccc(NC(=O)C(=O)c5cccn5C)c4)cc3)[nH]c12`, the IFI is 1.8%. Compound `COc1ccc(Nc2nccc(-c3c(-c4cccc(NC(=O)c5c(F)cccc5F)c4)nn4ccccc34)n2)cc1Cl` had an IFI of 2.8%. Compound `Cc1cc(Nc2ncc(Cl)c(Nc3ccccc3C(N)=O)n2)n[nH]1` returned an IFI of 0%. Consider `Cc1cc(=NN=Cc2cccc(F)c2)c2ccc(F)cc2[nH]1`, for which the IFI is 0%. As for `O=C(Nc1cccc(-c2cc(-c3c(Cl)cccc3Cl)no2)c1)c1cnc2ccccc2c1`, the figure is -0%; as for `Cc1cccc(NC(=O)Nc2ccc(I)c(OCCN(C)C)c2)c1C`, 2.88%. As for `COc1ccc2nccc([C@@H](O)CN3CCC(NCc4cc5cccc(O)c5[nH]4)CC3)c2c1`, the figure is 4.96%; as for `Cc1cc(Cl)ccc1OC(C)C(=O)N1CCc2ccccc21` (stereo not drawn), 2.86%. Take `CCCN(CCC)CCCCC(C)Nc1c2ccc(Cl)cc2nc2ccc(OC)cc12` (stereo not drawn): the IFI came out at 3.05%. The same measure for `COc1ccc2nc(C)cc(Nc3ccc(Oc4ccc(Cl)cc4)c(Cl)c3)c2c1`: 5.3%.

Compound `Cc1cc(N(C)C)nc(Nc2ccc(NC(=O)C3CCCCC3)cc2)n1` had an IFI of 3.85%. The same measure for `COc1cc2nc(N3CCC(CNC(=O)c4ccc(-c5ccc(C(=O)N(C)C)cc5O)cc4)CC3)nc(N)c2cc1OC`: 1.8%; for `CC(C)c1ccc(CN2CCC(CNC(=O)c3cc(-c4cccc(F)c4)cs3)C2)cc1` (stereo not drawn): 14.3%; for `Cc1ccc(O)c(-c2cc(C(=O)Nc3ccc(S(=O)(=O)N4CCCCCC4)cc3)[nH]n2)c1`: 1.54%. As for `Cc1ccc(Cn2nc(Cl)c(N3CCCNCC3)cc2=O)cc1NC(=O)Nc1ccc(-c2ccccc2)cc1`, the figure is 5.52%.

The compound `Nc1ncc(-c2ccsc2)c2ccc(-c3cnc[nH]3)cc12` gave an IFI of 2.92%. The compound `Cc1c(S(=O)(=O)Nc2ccc3ccn(CCN(C)C)c3c2)sc2ccc(Cl)cc12` registered an IFI of 4.35%. As for `CCCc1cc(C(=O)N[C@@H](Cc2ccccc2)[C@H](O)CNC2CCOCC2)c(F)c(N2CCCCS2(=O)=O)c1`, the figure is 0.72%; as for `C[C@H](NC(=O)[C@H](CCCCNC(=O)OC(C)(C)C)NC(=O)OC(C)(C)c1ccc(-c2ccccc2)cc1)C(=O)OCc1ccccc1`, 2.84%; as for `CCc1cn2c3c(cc(C(=O)N[C@@H](Cc4ccccc4)[C@H](O)CNC4CCOCC4)cc13)N(C)S(=O)(=O)C2`, 3.62%. Compound `CC1=C(C(=O)Nc2ccccc2)C(c2ccc([N+](=O)[O-])cc2)n2ncc(C(=O)Nc3ccccc3)c2N1` (stereo not drawn) registered an IFI of 0%. In turn, `NC(=S)Cc1ccc2c(c1)OCO2` showed an IFI of 4.26%. As for `Cc1[nH]c(C)c(-c2ccc(OCc3cc(F)cc(F)c3)nc2)c(=O)c1Cl`, the figure is 7.02%; as for `Cc1cc(C(=O)Nc2ccc(C)c(-c3nc(N(C(=O)c4ccc(F)c(C)c4)C4CCNCC4)nc4c3ccc(=O)n4-c3c(F)cccc3F)c2)ccc1F`, 1.01%.

`FC(F)(F)c1ccc(/C=C/c2cncnc2Nc2ccc3[nH]c(Cc4ccccc4)nc3c2)cc1` came in with an IFI of 0.74%. The same measure for `CCCCCCN1CCCN(Cc2ccc(C(=O)Nc3ccc(F)c(F)c3)cc2)CC1`: 9.45%. As for `O=C(NCCc1ccc(Cl)c(Cl)c1)c1ccc(CNC(=O)c2ccc(O)c(-c3ccc(Cl)c(Cl)c3)c2)cc1`, the figure is 1.48%; as for `N#CCSc1nnc(-c2ccccc2)c2ccccc12`, 2.05%. The same measure for `FC(F)(F)c1ccc(CNC2CCN(CC3CCCCC3)CC2)cc1`: 2.03%; for `CC(Nc1ncc(-c2ccsc2)c(-c2nccs2)n1)c1ccc2c(c1)OCCO2` (stereo not drawn): 4.49%.

The compound `COc1ccc2nccc([C@@H](O)CN3CCC(NCc4cc5oc(=O)[nH]c5cc4F)CC3)c2c1` yielded an IFI of 0.74%. In turn, `COc1cc(-c2nc(-c3ccccc3)c(-c3ccccc3)[nH]2)cc(OC)c1O` yielded an IFI of 5.84%. As for `Cc1cc(C(=O)CSc2nc3ccccc3n2-c2ccccc2)c(C)n1C1CCS(=O)(=O)C1` (stereo not drawn), the figure is 1.89%; as for `Cc1cccc(CN2CCCN(Cc3ccc(C(=O)Nc4ccc(C(C)(C)C)cc4)cc3)CC2)c1`, 15.4%.

`CN1CCCC(CN2CCN(Cc3ccc(-c4cccc(-c5nc6cc(F)ccc6[nH]5)c4)cc3)CC2)C1` (stereo not drawn) returned an IFI of 12.5%. The same measure for `O=C(CCCCCNC(=O)c1ccc(O)c(-c2ccc(Cl)c(Cl)c2)c1)NCCc1ccc(Cl)c(Cl)c1`: 1.48%. The same measure for `Cc1[nH]c(C)c(-c2ccc(OCc3cc(C(F)(F)F)cc(C(F)(F)F)c3)nc2)c(=O)c1Cl`: 4.59%; for `CC(Cl)=CCc1c(C)nc2c(ccc3ccccc32)c1O`: 0.77%. `CC1(C)N=C(N)N=C(N)C1c1ccc(Cl)cc1` (stereo not drawn) came in with an IFI of -0%. `Cc1nc2ccc3ccc(CNc4ccc5c(c4)CN([C@@H](CCC(=O)O)C(=O)O)C5=O)cc3c2c(=O)[nH]1`: the IFI was 3.73%.

For the compound `CCCCC([C@@H](Cc1ccc2ccccc2c1)C(=O)N[C@H](C(=O)NC)C(C)(C)C)N(O)C=O` (stereo partly drawn), the IFI is 0.71%.

With `COc1ccc(O)c(C(=O)c2cnc3c(c2)c(-c2ccc(F)cc2)c(C#N)c(=O)n3C)c1`, the IFI worked out at 2.65%. `O=C(Nc1cccnc1)c1cn(-c2ccccc2)nc1-c1cccs1` returned an IFI of 2.08%. As to `CC(NCCC1CCC(NC(=O)N[C@H](C)C(O)(c2ccccc2)c2ccccc2)CC1)c1cccc2ccccc12` (stereo partly drawn), the IFI came out at 11.6%. The same measure for `O=C(N[C@@H](Cc1ccccc1)C(=O)NCCN1CCCCC1)c1ccc(O)c(-c2cccc(C(F)(F)F)c2)c1`: 2.19%; for `Cc1cccc(Nc2nc(NCCCCN)nc3cc[nH]c(=O)c23)c1`: 8.33%.

`COc1ccc(CNCc2cccc(-c3cccc(-c4nc5ccccc5[nH]4)c3)c2)cc1` returned an IFI of 7.55%.

`CCCCCCCCCn1c(NCc2cc(Cl)ccc2O)nc2ccccc21` showed an IFI of 4.2%. For the compound `CCC(C(=O)Nc1ccccc1)n1nc(-c2ccc(C)c(S(=O)(=O)N3CCCCC3)c2)ccc1=O` (stereo not drawn), the IFI stood at 2.38%. As for `Cc1ccc(NC(=O)c2ccc(CN3CCCN(Cc4cccc(Cl)c4)CC3)cc2)cc1C`, the figure is 8.94%; as for `COc1cc2nc(NCCc3ccccc3)nc(N(C)Cc3ccccc3)c2cc1OC`, 11%; as for `CCN1CCC(N2CCC(C(=O)Nc3cccc(-c4cccc(Cl)c4)c3)CC2)CC1`, 4.76%. `Cc1nc(N)nc(N)c1CCCOc1ccccc1Cl` displayed an IFI of 2.13%. In turn, `COc1ccc2nccc(N3CCC(SCCNCc4ccc5c(n4)NC(=O)CO5)C3)c2n1` (stereo not drawn) came in with an IFI of 3.7%.

The compound `COc1ccc2nccc(N3CCN(CCNCc4ccc5c(n4)NC(=O)CS5)CC3)c2c1` displayed an IFI of 5.26%. For `O=C(Cn1c(CCc2cccc(F)c2F)nc(=O)c2cccnc21)N(Cc1ccc(-c2ccc(C(F)(F)F)cc2)cc1)C1CCN(C2CCSCC2)CC1`, the IFI was 11.1%.

Take `COc1cccc(-c2cc(C(=O)Nc3ccc4[nH]c(-c5ccccc5)nc4c3)[nH]n2)c1`: the IFI came to 7.41%.

These data come from ChEMBL document CHEMBL1157539, “Thousands of chemical starting points for antimalarial lead identification” (Nature, 2010).
